Binding signal data for 172 sequences are collected here from publication PMC10668032.

The list shows a part of the results. At the low end of the ranking the order means little.

The assay addresses SIX1 homeodomain (reference allele) (UniProt Q15475). Kind of assay: universal protein binding microarray. The settings on record: Universal all-10-mer PBM (8x60K, AMADID 030236), 300 nM GST-tagged protein, Alexa Fluor 488 anti-GST; buffer, salt, pH and temperature not stated; high values mean tight binding; most listed sequences are background and not binding sites; double strand, one strand shown.
Consider ACTGGGTG, for which the binding signal came to 0.159 E-score.
For GGCTGGAC the value was -0.302 E-score.
For CATACTCG the value was 0.0406 E-score.
In the case of CAGCCCAG it was -0.0872 E-score.
For GAAAAGCC, the binding signal was -0.146 E-score.
In the case of AAACATAC it was 0.0509 E-score.
As for GGACAAAC, the binding signal is -0.284 E-score.
AACTCCTA: the binding signal was -0.12 E-score.
In the case of AGCAGAGC it was -0.217 E-score.
For CGAGATCA the value was 0.287 E-score.
For AATTCGAA the value was -0.226 E-score.
For the sequence CATGAATG, the binding signal was -0.0161 E-score.
In the case of CGCTAAAA it was -0.135 E-score.
For AGTCCGCA the value was -0.185 E-score; for ATAAGATC, 0.222 E-score; for AGTAGTTG, -0.0451 E-score.
For AACTTCCC the value was -0.177 E-score.
Take ACCACAAG: the binding signal is -0.0734 E-score.
In the case of ACCAATTA it was -0.0296 E-score.
For CTATATAC the value was 0.275 E-score; for ATCCCTTA, 0.278 E-score; for CTCGCCGA, -0.0385 E-score.
In the case of AACTTTGT it was -0.264 E-score; in that of ATCACGGA, 0.288 E-score.
Take CGACCAAG: the binding signal was -0.0073 E-score.
Regarding CAAAATTG, the binding signal is -0.139 E-score.
Consider AAATCCGA, for which the binding signal is 0.101 E-score.
In the case of GCTGCAAC it was -0.0866 E-score; in that of GTTTAAGA, -0.153 E-score.
In the case of ATTGTCCA, the binding signal is -0.0461 E-score.
In the case of CTTCGGTA it was -0.184 E-score; in that of GCTCTCCA, -0.104 E-score.
In the case of ACCTCCAG it was -0.0338 E-score; in that of ATGCCAGG, 0.161 E-score; in that of ACCGGGGC, -0.0943 E-score.
For the sequence ATGCAATA, the binding signal is 0.192 E-score.
For ATTCAATG the value was -0.0908 E-score.
For AGATAACT the value was 0.0409 E-score.
In the case of AGTCAATC it was -0.0728 E-score; in that of GTAGCAAA, -0.256 E-score; in that of AGTGCCTA, -0.0693 E-score.
On to ATACTAAT, for which the binding signal worked out at 0.29 E-score.
For the sequence ACATAGCA, the binding signal is -0.0739 E-score.
In the case of GTGGGTGA it was -0.0076 E-score.
For CGAACACA the value was -0.101 E-score; for GAGCTCGC, 0.0177 E-score.
In the case of AACACCCC it was 0.268 E-score; in that of ATCCCCCG, 0.403 E-score; in that of CGATAGCG, 0.228 E-score.
On to CCCGGGGA, for which the binding signal amounted to 0.13 E-score.
For AAGCTAGC the value was -0.02 E-score.
For ATCACCTC the value was 0.268 E-score; for GCCGAACC, -0.0451 E-score; for GTAGTGTA, 0.131 E-score.
In the case of ACAAAGTC it was -0.365 E-score; in that of TAATAGAA, 0.0619 E-score; in that of GGTAGGAA, -0.222 E-score.
ACGGTGCT: the binding signal was -0.0983 E-score.
With GCGATATA, the binding signal was found to be 0.399 E-score.
For GCTGCTGA the value was -0.102 E-score; for ATTTGTGA, 0.037 E-score.
For CTGCATAA the value was -0.138 E-score; for CGGGCGAC, -0.0496 E-score; for ATACAGGC, 0.132 E-score.
In the case of GCAAGAGA it was -0.006 E-score; in that of CGGTGGCA, -0.0665 E-score; in that of CCTAACAG, -0.0959 E-score.
As for GCAACTTA, the binding signal was -0.209 E-score.
In the case of AGCGTTCA it was -0.326 E-score; in that of CACACGCG, 0.0907 E-score.
Consider ATTACATA, for which the binding signal was 0.153 E-score.
For AATCTACG the value was -0.0521 E-score; for ATAATACA, 0.302 E-score; for AATATATT, 0.0272 E-score.
For ATGTTGAC the value was -0.0159 E-score; for AGCCTATA, 0.128 E-score.
As for TGTCGAAA, the binding signal came to 0.0107 E-score.
Take CTTGCCCA: the binding signal was -0.0726 E-score.
In the case of ACGAGAAG it was -0.00441 E-score; in that of TCGTATAA, 0.194 E-score.
For AATTCATC the value was -0.0054 E-score.
As to GCCCTAAA, the binding signal is -0.32 E-score.
In the case of AGAATCAG it was 0.0701 E-score; in that of CGCAGAAC, -0.146 E-score; in that of CTCGTTCC, -0.00777 E-score.
Take AGTTGCAT: the binding signal came out at 0.102 E-score.
For ATCGGGGA the value was 0.252 E-score; for AGCTAGTC, -0.0486 E-score.
In the case of CGATTGTC it was -0.251 E-score; in that of CCGCACGA, 0.0947 E-score.
For GCTCATAC the value was 0.0544 E-score.
In the case of AGGGGTTG, the binding signal came to 0.000395 E-score.
In the case of TGCTAGAA it was -0.17 E-score; in that of AAGTATCT, 0.266 E-score.
In the case of CATATTGG it was 0.101 E-score.
In the case of ATTCCGCG it was 0.15 E-score; in that of GTAGCCGA, -0.00837 E-score; in that of AATTATTG, -0.251 E-score.
On to GTATGTCA, for which the binding signal was -0.171 E-score.
In the case of GGACACCC it was 0.372 E-score.
In the case of CTACAGAA it was -0.155 E-score.
For CAAAAGGG, the binding signal is -0.0877 E-score.
For GACGTTGC the value was -0.245 E-score; for AGCATAGG, -0.25 E-score; for AACAAAAG, -0.128 E-score.
For GTATGTAA the value was -0.0256 E-score; for CCTGATCA, 0.306 E-score; for AACGAGCA, -0.282 E-score.
In the case of CAATTAGC it was -0.0527 E-score; in that of TCGGGACA, -0.126 E-score; in that of AACCCTCA, -0.00756 E-score.
In the case of ACATTCAT, the binding signal was -0.189 E-score.
For TCATTAAA the value was 0.0616 E-score.
For CAGCGGAA the value was -0.242 E-score; for ATCATTGA, 0.28 E-score; for GACGGACC, -0.167 E-score.
In the case of GAATTGTC, the binding signal was -0.247 E-score.
For GAGACTAA the value was -0.128 E-score; for TAGAGTCA, -0.175 E-score.
For AGCGTATC the value was 0.411 E-score; for GCACATGA, -0.0574 E-score; for CCCTATTC, 0.123 E-score.
CAATTTGA: the binding signal is -0.0895 E-score.
For AGTCGTGG the value was -0.111 E-score.
For GCTACCAA the value was -0.161 E-score.
In the case of ACACCTAT it was 0.26 E-score; in that of GTAGCCAC, -0.0472 E-score.
As to ATCTGGGG, the binding signal was 0.176 E-score.
In the case of ACTCGAGG it was -0.0991 E-score.
For AAACACAC the value was -0.0089 E-score; for AACGTTCG, -0.203 E-score.
In the case of ATGCCTAG it was -0.0374 E-score; in that of ATCGGACC, 0.229 E-score; in that of CAAGAACA, -0.199 E-score.
Take TCCGGCCA: the binding signal was -0.00656 E-score.
In the case of CGTCGTAC it was -0.192 E-score; in that of CGGCCACG, -0.239 E-score; in that of AGATGCTG, -0.124 E-score.
AGGCACAA: the binding signal is -0.15 E-score.
For ACTGGGCT the value was -0.19 E-score; for CACCACGC, -0.0173 E-score.
In the case of CCGAACCC it was 0.00892 E-score; in that of GCCTGCAC, -0.148 E-score.
In the case of AACGGGAG it was -0.0232 E-score.
As for AATCCCAC, the binding signal was determined as 0.158 E-score.
In the case of AAGCTACG it was -0.178 E-score; in that of CTTCACTA, 0.0415 E-score.
For GTGTACTA, the binding signal is 0.0362 E-score.
In the case of ACGGAAGG it was -0.0293 E-score.
For ACATACAG the value was 0.11 E-score; for CGCATTTC, -0.18 E-score.
In the case of TTATTAAA it was -0.125 E-score; in that of CAACGTGC, -0.157 E-score; in that of CCAAAACA, -0.0551 E-score.
GGAACCCC: the binding signal was found to be 0.00272 E-score.
For AGGATTCC the value was -0.0219 E-score; for ATTCAGCG, -0.18 E-score; for CATAGCGC, -0.0875 E-score.
For AGGTGTCA the value was 0.452 E-score.
In the case of GATGTTCA it was -0.0929 E-score; in that of CCATCAGA, 0.0179 E-score; in that of GCCTTCAA, -0.164 E-score.
With CGTTTACA, the binding signal is -0.0482 E-score.
As for AATATTCA, the binding signal turned out to be 0.0039 E-score.
In the case of AGGTACGG it was 0.0449 E-score; in that of AATTAGCT, -0.208 E-score; in that of ATTGTGCC, -0.107 E-score.
In the case of AATCGTTA it was 0.0756 E-score; in that of GTCTATGA, 0.0257 E-score; in that of GTAGTCTA, 0.0273 E-score.
In the case of AAGACAGG it was -0.166 E-score; in that of AAATGCCT, -0.0413 E-score.
